The list shows a part of the results. Each Rep nickase domain was tested in vitro on the same pool of single strands at 3 µM enzyme and 37 °C for 1 h; the strands have 90 letters, of which the middle is given. A value is the log2 ratio of uncut reads to the pool without enzyme; uncut sequences lie near 0, cut ones below; no hit call is given. Reads are scaled to the total, so uncut sequences can rise above 0 when many others are cut.
Legend:
Experiment in all cases: uncleaved DNA left, log2 of reads against the no-enzyme library (log2 ratio); higher = less cleavage (more negative = more Rep cleavage of the k-mer); sequences stand for … in CTCGTCCG…ACCGGAGA
[1] = test system: T1, Rep nickase domain of Muscovy duck circovirus
T1 sequence (protein, residues 1-111, tag omitted): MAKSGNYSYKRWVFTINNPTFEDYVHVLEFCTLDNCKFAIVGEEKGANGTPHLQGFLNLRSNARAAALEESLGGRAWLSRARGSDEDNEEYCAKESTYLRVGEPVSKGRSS
Protocol: (§1)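 A pool of 90-nt single-stranded DNAs with seven random bases just before the constant AC of the nick site (name = the seven bases) was cut by 3 µM recombinant His6-SUMO-tagged Rep nickase domain (300 nM DNA, 50 mM HEPES pH 8.0, 50 mM NaCl, 1 mM MnCl2, 1 h, 37 °C, three replicates). Uncut DNA was amplified and sequenced.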

[2] = test system: T2, Rep nickase domain of banana bunchy top virus
T2 sequence (protein, residues 1-94, tag omitted): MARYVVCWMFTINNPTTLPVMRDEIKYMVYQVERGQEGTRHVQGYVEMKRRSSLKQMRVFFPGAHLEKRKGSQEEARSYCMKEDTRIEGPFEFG
Protocol: as §1

[3] = test system: T3, Rep nickase domain of cabbage leaf curl virus
T3 sequence (protein, residues 1-116, tag omitted): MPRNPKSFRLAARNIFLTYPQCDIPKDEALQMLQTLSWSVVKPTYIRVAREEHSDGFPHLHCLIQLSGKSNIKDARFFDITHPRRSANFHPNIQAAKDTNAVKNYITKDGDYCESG
Protocol: as §1

[4] = test system: T4, Rep nickase domain of chickpea chlorotic dwarf virus
T4 sequence (protein, residues 1-124, tag omitted): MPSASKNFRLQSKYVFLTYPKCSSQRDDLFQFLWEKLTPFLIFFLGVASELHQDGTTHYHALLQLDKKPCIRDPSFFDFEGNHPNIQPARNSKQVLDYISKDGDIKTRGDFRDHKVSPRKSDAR
Protocol: as §1

[5] = test system: T5, Rep nickase domain of faba bean necrotic yellows virus
T5 sequence (protein, residues 1-98, tag omitted): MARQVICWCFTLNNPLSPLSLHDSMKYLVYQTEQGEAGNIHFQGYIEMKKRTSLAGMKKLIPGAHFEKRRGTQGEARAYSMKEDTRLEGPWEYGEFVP
Protocol: as §1

[6] = test system: T6, Rep nickase domain of maize striate mosaic virus
T6 sequence (protein, residues 1-117, tag omitted): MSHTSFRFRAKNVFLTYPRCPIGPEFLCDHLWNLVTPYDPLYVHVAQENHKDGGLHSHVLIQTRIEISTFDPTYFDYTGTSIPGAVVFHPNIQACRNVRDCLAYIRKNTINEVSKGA
Protocol: as §1

[7] = test system: T7, Rep nickase domain of porcine circovirus 2
T7 sequence (protein, residues 2-116, tag omitted): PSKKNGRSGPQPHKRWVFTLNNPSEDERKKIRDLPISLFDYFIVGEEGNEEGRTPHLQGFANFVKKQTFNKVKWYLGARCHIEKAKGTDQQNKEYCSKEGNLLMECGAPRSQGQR
Protocol: as §1

[8] = test system: T8, Rep nickase domain of tomato golden mosaic virus
T8 sequence (protein, residues 1-124, tag omitted): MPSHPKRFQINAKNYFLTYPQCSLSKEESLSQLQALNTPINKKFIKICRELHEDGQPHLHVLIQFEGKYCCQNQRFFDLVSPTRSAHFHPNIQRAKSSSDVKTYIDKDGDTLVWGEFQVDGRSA
Protocol: as §1

[9] = test system: T9, Rep nickase domain of tomato yellow leaf curl virus
T9 sequence (protein, residues 1-136, tag omitted): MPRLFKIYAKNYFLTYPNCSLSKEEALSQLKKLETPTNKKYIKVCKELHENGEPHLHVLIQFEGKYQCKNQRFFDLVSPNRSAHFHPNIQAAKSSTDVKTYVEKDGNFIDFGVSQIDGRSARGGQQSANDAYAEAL
Protocol: as §1

[10] = test system: T10, Rep nickase domain of wheat dwarf virus
T10 sequence (protein, residues 1-137, tag omitted): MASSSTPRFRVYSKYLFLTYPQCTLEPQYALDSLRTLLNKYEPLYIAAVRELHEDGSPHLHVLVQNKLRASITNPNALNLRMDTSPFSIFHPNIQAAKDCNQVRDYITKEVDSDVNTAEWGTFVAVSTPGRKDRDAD
Protocol: as §1

Row | Sequence | uncleaved DNA left (log2) [1] | uncleaved DNA left (log2) [2] | uncleaved DNA left (log2) [3] | uncleaved DNA left (log2) [4] | uncleaved DNA left (log2) [5] | uncleaved DNA left (log2) [6] | uncleaved DNA left (log2) [7] | uncleaved DNA left (log2) [8] | uncleaved DNA left (log2) [9] | uncleaved DNA left (log2) [10]
1 | ATCGGGC | 0.00943 | -0.0125 | 0.415 | 0.505 | -0.114 | 0.557 | 0.102 | -0.00674 | -0.167 | -0.0446
2 | TGGTCAG | 0.0841 | 0.145 | 0.174 | 0.587 | 0.0574 | -0.192 | 0.191 | 0.054 | 0.0986 | 0.0565
3 | AGGGGGG | 0.0928 | 0.0206 | -0.0518 | 0.214 | 0.0869 | -0.0655 | 0.238 | 0.0996 | 0.0801 | -0.0142
4 | TGAAAAT | 0.0519 | 0.159 | 0.334 | -0.00987 | 0.0993 | 0.164 | -0.168 | 0.104 | 0.175 | 0.258
5 | GTTCGCC | 0.00832 | 0.00302 | 0.215 | 0.699 | -0.122 | 0.935 | -0.0944 | 0.0199 | -0.019 | -0.0604
6 | GACATAT | -0.129 | -0.144 | 0.446 | 1.02 | -0.144 | 1.64 | -0.0639 | -0.122 | -0.0563 | 0.0124
7 | CCCGCAC | -0.228 | -0.211 | -0.211 | -0.429 | -0.153 | -0.711 | -0.0866 | -0.235 | -0.112 | -0.24
8 | AACTCTG | 0.0441 | 0.0632 | 0.107 | 0.549 | 0.0534 | 0.726 | 0.0708 | 0.0718 | -0.016 | -0.00326
9 | AGTGCCA | -0.00975 | 0.101 | 0.105 | 0.338 | 0.0499 | 0.653 | -0.0831 | 0.103 | 0.00672 | 0.0236
10 | ACAGAAT | 0.00799 | -0.038 | -0.0707 | -0.483 | 0.114 | -0.284 | 0.0985 | 0.136 | -0.296 | -0.0347
11 | GATAAGT | -0.0121 | 0.111 | 0.127 | -0.0332 | 0.129 | -0.381 | -0.34 | 0.0376 | 0.104 | 0.013
12 | GCGCGAG | 0.0514 | 0.113 | 0.154 | 0.553 | -0.0368 | -0.201 | 0.12 | -0.0419 | -0.0593 | 0.0209
13 | TACCACG | -0.0786 | -0.118 | -0.889 | -1.15 | -0.123 | -1.09 | -0.902 | -0.209 | -0.177 | -0.168
14 | GCTCCGA | -0.0543 | 0.0824 | 0.134 | 0.544 | -0.104 | 0.0962 | 0.119 | 0.0756 | 0.0465 | 0.124
15 | TCTTGAT | -0.295 | -0.12 | 0.0396 | -0.0166 | -0.0914 | 0.349 | -2.19 | 0.0179 | -0.1 | -0.109
16 | CGTATCA | 0.152 | 0.13 | 0.466 | 0.294 | 0.0302 | 0.689 | 0.0668 | 0.0552 | 0.185 | 0.249
17 | GAACTAA | 0.183 | 0.266 | 0.377 | 0.503 | 0.135 | 1.23 | 0.203 | 0.119 | 0.287 | 0.207
18 | GCGCTTC | -0.0522 | -0.0423 | 0.08 | 0.198 | 0.00287 | -0.053 | 0.0258 | -0.061 | -0.0241 | 0.00648
19 | AAATACG | -0.0514 | -0.0577 | -0.789 | -0.00886 | -0.0103 | -0.905 | 0.173 | -0.0191 | -0.0466 | -0.124
20 | AGCTACC | 0.0684 | -0.0456 | 0.000963 | -0.0307 | -0.0029 | 0.435 | -0.37 | 0.0422 | -0.0202 | -0.0201
21 | CGCGGTC | -0.225 | -0.255 | -0.218 | -0.333 | -0.228 | -0.703 | -0.116 | -0.163 | -0.154 | -0.24
22 | AAAGTTC | 0.122 | -0.0458 | -0.164 | -2.17 | 0.0177 | -0.528 | -0.0816 | -0.0193 | -0.00749 | -0.281
23 | TGATCTA | -0.0784 | 0.0439 | 0.197 | -0.3 | -0.0634 | 0.343 | -0.158 | -0.112 | 0.0815 | 0.103
24 | GCGAATT | 0.0903 | 0.0521 | 0.127 | 0.36 | -0.137 | 1.25 | -0.239 | -0.0731 | 0.0853 | 0.118
25 | AATGATG | 0.104 | -0.088 | 0.0829 | 0.923 | 0.0454 | 0.824 | 0.138 | 0.0705 | -0.17 | 0.0528
26 | CTTTCAA | -0.0557 | 0.0766 | -0.0295 | -0.149 | -0.0594 | -0.715 | -0.0399 | -0.0938 | 0.0021 | 0.0751
27 | AAGTAAA | -0.0359 | -0.0761 | -0.0629 | -0.345 | 0.124 | -0.162 | -2.99 | 0.124 | -0.0309 | 0.0659
28 | AAAAGTA | 0.0277 | 0.101 | -0.36 | -2.23 | 0.0102 | -0.733 | -0.103 | 0.115 | 0.0417 | -0.0147
29 | TACATTT | -0.505 | -0.977 | -3.26 | -3.19 | -0.118 | -1.09 | -3.55 | -0.434 | -0.149 | -0.642
30 | GTCCCAT | 0.208 | 0.336 | 0.515 | 1.15 | 0.119 | 1.91 | 0.333 | 0.189 | 0.236 | 0.317

From the supplement of paper PMC7826260
